This is an account of results in the supplement of paper PMC9513381.

For experiment [1], the target named is SARS-CoV-2 Wuhan-Hu-1 spike pseudovirus. Nature of the experiment: pseudovirus neutralization IC50; higher = weaker neutralization. How it is done: (§1)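 Single-round luciferase reporter pseudovirus mixed with antibody dilutions and put on 293T-ACE2 cells for 48 h; signal relative to no-antibody wells, four-parameter fit.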
Experiment [2] shares this target. Nature of the experiment: pseudovirus neutralization IC90; higher = weaker neutralization. The protocol:
as §1

Experiment [3] concerns the target SARS-CoV-2 Delta (B.1.617.2) spike RBD. Nature of the experiment: ELISA binding EC50; higher = weaker binding; ELISA of recombinant human antibody on coated antigen, from 10 µg/ml in fourfold dilutions; four-parameter fit. A general note: In an ELISA, binding on a coated surface is turned into a signal by an enzyme label.
Experiment [4] concerns the target SARS-CoV-2 Omicron BA.1 spike protein. Described as above.
Experiment [5] has as its target SARS-CoV-2 Wuhan-Hu-1 spike receptor-binding domain. The description is as above.

Recombinant human monoclonal antibodies (heavy:light variable regions). ELISA EC50 on the named antigen, from 10 µg/ml down; IC50 / IC90 against spike pseudovirus on 293T-ACE2 cells, 48 h; lower = stronger. Calls: IC50 above 1,000 ng/ml = non-neutralizing; EC50 above 1,000 ng/ml = non-binder. The source prints 1000 for neutralization that was not reached; it is given as >1000 ng/ml. Only binders of the Wuhan-Hu-1 domain have neutralization values. Some results are limits rather than exact numbers.

B1: B2083 (protein)
chain 1: QVQLVQSGAEMKKPGASVKVSCKASRYTFTGYYIHWVRQAPGQGLEWMGWINPDSGGVNYAQKFQGRVTMTRDTSINTAYMELSSLRSDDTAVYYCATHVLRSCSGGTCYEYYYYGMDVWGQGTTVTVSS
chain 2: QSALTQPASVSGSPGQSITISCTGTNSDVGAYDLVSWYQQHPDKAPKLIIYEVTKRPSGVSNRFSGSKSGNTASLTISGLQADDEADYFCCSFTGRSASFWVFGGGTKLTVL
Turning to B1, the “pseudovirus neutralization IC50” value in experiment [1] was determined as 0.0268 µg/mL. For the same molecule, in experiment [2], the “pseudovirus neutralization IC90” value is 0.861 µg/mL. The “ELISA binding EC50” value was above 1 µg/mL in experiment [3], 0.135 µg/mL in experiment [4] and 0.0048 µg/mL in experiment [5].

B2: B2081 (protein)
chain 1: QLQLQESGPGLVKPSETLSLTCTVSGGSITSSSYYWAWIRLPPGKGLEWIGSVFYSGITYYSPSLKSRVTISVDTSKNQFSLNLSSVTAADTAVYYCARWPRDFSDSSGYYHHAFDIWGHGTMVTVSS
chain 2: QSALTQPASVSGSPGQSITISCTGTSSDVGSYDLVSWYQRHPGQAPKLMIYEVTKRPSGVSNRFSGSKSGNTASLTISGLQAEDEADYYCCSYAGRWFFGGGTKLSVL
As to B2, in experiment [1], the “pseudovirus neutralization IC50” value was above 1 µg/mL. Also, the “pseudovirus neutralization IC90” value in experiment [2] is above 1 µg/mL. The results for the “ELISA binding EC50” value in experiment [3], in experiment [4] and in experiment [5] were 0.0271 µg/mL, 0.279 µg/mL and 0.00332 µg/mL, respectively.

B3: B2078 (protein)
chain 1: EVQLVESGGGLVQPGGSLRLSCRVSGFTFSNYWMSWVRQAPGKGLEWVANIGQDGNEKYYVDSVKGRFTISRDNAKNSLYLQMNSLRAEDTAVYFCVRGMDDPYCSGGSCYNWYFDLWGRGTLVTVSS
chain 2: EIVLTQSPATLSLSPGERATLSCRASQSIYSYLAWYQQKPGQAPRLLIYDASNRATGIPARFSGSGSGTDFTLTISSLEPEDFAVYYCQQRNNWPPRFTFGPGTKVDIK
As to B3, in experiment [1], the “pseudovirus neutralization IC50” value amounted to 0.00578 µg/mL. For the same molecule, the “pseudovirus neutralization IC90” value in experiment [2] came to 0.0603 µg/mL. Besides, the “ELISA binding EC50” value in experiment [3] was above 1 µg/mL; in experiment [4] it was 0.125 µg/mL; in experiment [5], 0.00296 µg/mL.

B4: B2080 (protein)
chain 1: QVQLVQSGAEVKKPGASVKVSCKASGYTFSGYYMNWVRQAPGQGLEWMGWINPNSGGTNYAQKFQGRVTMTRDTSISTAYMELSRLTSDDTAVYYCARPTGDSQREMGTIIGEYFQHWGQGTLVTVSS
chain 2: SYELTQPPSVSVSPGQTARITCSGDVLPKQHAYWYQQKPGQAPVLVIYKDSERSSGIPERFSGSSSGTTVTLTISGVQAEDEADYYCQSADSRYVVFGGGTKLTVL
As for B4, the “pseudovirus neutralization IC50” value in experiment [1] is above 1 µg/mL. The “pseudovirus neutralization IC90” value in experiment [2] was above 1 µg/mL. The “ELISA binding EC50” value in experiment [3] is 0.0382 µg/mL; in experiment [4], above 1 µg/mL; in experiment [5], 0.00372 µg/mL.

B5: B2086 (protein)
chain 1: QVQLVESGGGVVQPGRSLRLSCAVSGFTFSKYGMHWVRQAPGKGLEWVAVIWYDGSNKYYVDSVKGRFTTSRDNSKNTLYLQMSSLRADDTAVYYCVKAGYSYAYTPYYFDYWGQGTLVTVSS
chain 2: IRMTQSPSSLSASVGDRITITCQASQDIRKYLNWYQQKPGKAPKLLIYDASDLETGVPSRFSGSGSGTDFTLTISNLQPEDFARYYCQQNDNLPLTFGGGTKVEIK
In the case of B5, the “pseudovirus neutralization IC50” value in experiment [1] was above 1 µg/mL. In addition, the “pseudovirus neutralization IC90” value in experiment [2] is above 1 µg/mL. Also, the “ELISA binding EC50” value was 0.0106 µg/mL in experiment [3], 0.0399 µg/mL in experiment [4] and 0.00359 µg/mL in experiment [5].

B6: B2082 (protein)
chain 1: EVQLVESGGGLVQPGGSLRLSCAASGITVSSNYMSWVRQAPGKGLERVSVIYSGGSTFYADSVKGRFTISRDNSKNTLYLQMKSLRAEDTAVYYCARDVSDAFDIWGQGTMVTVSS
chain 2: DIQLTQSPSFLSASVGDRVTITCRASQGISSYLAWYQQKPGKAPKLLIYAASTLQSGVPSRFSGSGSGTEFTLTISSLQPEDLATYYCQQLNSLPPKLTFGGGTKVEIK
Regarding B6, in experiment [1], the “pseudovirus neutralization IC50” value stood at 0.00851 µg/mL. The “pseudovirus neutralization IC90” value in experiment [2] is 0.052 µg/mL. In addition, the “ELISA binding EC50” value in experiment [3] is 0.011 µg/mL; in experiment [4] it was above 1 µg/mL; in experiment [5], 0.00128 µg/mL.

B7: B2075 (protein)
chain 1: EVQLLESGGGLVQPGGSLRLSCAASGFTFSNYAMNWVRQAPGKGLEWVSAIDGSVGSTYYADSVKGRFTISRDNSKNTLYLQMNSLRADDTAVYYCAKRRGYYDSIHYRPGPEYFQNWGQGTLVTVSS
chain 2: DIQLTQSPSSLSASVGDRVTITCRASQSISEYLNWYQQRPGRAPELLIYAASTLESGVPSRFSGSGYGTDFTLTISSLQPEDFATYYCQQSYNTPESFGQGTKVEIK
Turning to B7, the “pseudovirus neutralization IC50” value in experiment [1] came out at 0.00156 µg/mL. The “pseudovirus neutralization IC90” value in experiment [2] was 0.00723 µg/mL. The figures for the “ELISA binding EC50” value in experiment [3], in experiment [4] and in experiment [5] were 0.00268 µg/mL, 0.025 µg/mL and 0.00162 µg/mL, respectively.
